Data: PubChem BioAssay AID624296 (National Center for Advancing Translational Sciences (NCATS), 2012)
The campaign covered roughly 350,000 compounds. About 9,900 (2.8%) were called active. The inconclusive results got no clear call from the source; some entries with a clear call stand among them for comparison. Calls come from the whole dose curve; as a rule, active = well fitted activation curve with a large enough effect; inconclusive = small, poorly fitted or top-dose-only effect; inactive = no such curve, though single readings can be large or run the other way. No potency is given beside an inconclusive call; the fits are too rough.

Assay: A quantitative high throughput screen for small molecules that induce DNA re-replication in MCF 10a normal breast cells. For activity, positive = re-replication: % of control where 0% means no effect. Note: nearly all actives have a fitted effect of over 50% in size.
Settings: MCF 10A DNA re-replication, Hoechst nuclear intensity, 48 h; activity, positive = re-replication: at 46.1 µM (top of the series)
Potency is the fitted concentration of half-maximal effect; tags give direction and shape of the fitted curve.

SMILES	Potency	activity, positive = re-replication
Nc1c(C(=O)OC2CCCCC2)c2nc3ccccc3nc2n1CC1CCCO1 (centres undefined)	inconclusive [activator, single point]	
CCCCCn1c(N)c(C(=O)NCc2cccs2)c2nc3ccccc3nc21	active: 5.17 µM	
CC(C)Oc1cccc(NC(=O)c2cccn(Cc3ccc4c(c3)OC(F)(F)O4)c2=O)c1	active: 13 µM	
CC(C)COP(=O)(c1ccc(N(C)C)cc1)C(Nc1ccccc1)c1ccccc1 (centres undefined)	inconclusive [activator, single point]	
COC(=O)C1=C(c2cccc(OC)c2OC)C[C@@H]2CC[C@H]1N2C(=O)NCC1CC1	inconclusive [activator, full curve, poor fit]	
Oc1ccc(-[n+]2c(-c3ccccc3)cc(-c3ccccc3)cc2-c2ccccc2)cc1	inconclusive [activator, single point]	
COC(=O)C1=C(c2ccc(-c3ccccc3)c(F)c2)C[C@@H]2CC[C@H]1N2C(=O)NCc1ccc(F)cc1	inconclusive [activator, full curve, poor fit]	
C=CCc1cc(C=C2C(=O)NC(=O)NC2=O)cc(OC)c1OCc1ccc(C(=O)O)cc1	inconclusive [activator, partial curve, poor fit]	
CCCCn1c(O)c(/C(CC)=N/N2CCCCC2c2cccnc2)c(=O)[nH]c1=S (centres undefined)	inconclusive [activator, single point]	
CCN1C[C@]2(COC)CC[C@H](OC)[C@@]34C5C[C@H]6C(=O)C5[C@](O)(C[C@H]6OC)[C@@](O)(C(OC)C23)[C@@H]14 (some centres undefined)	inactive	
O=P(Nc1cccc(Cl)c1)(Oc1ccccc1)Oc1ccccc1	inconclusive [activator, single point]	
Nc1c(C(=O)NCCc2ccccc2)c2nc3ccccc3nc2n1CCN1CCOCC1	inactive	
O=c1[nH]c(=O)n(CCc2ccccc2)c(O)c1C=NC1CC1	inactive	
O=C(O)C1C2CCC(O2)C1C(=O)NC1CCCCC1 (centres undefined)	inconclusive [activator, single point]	
C[C@H](CO)N1C[C@H](C)[C@H](CN(C)S(=O)(=O)c2ccccc2)Oc2ccc(NC(=O)NC3CCCCC3)cc2CC1=O	inconclusive [activator, single point]	
Cc1ccc(CN(Cc2ccccc2)C(=S)NCC(=O)N2CCC3(CC2)OCCO3)o1	inconclusive [activator, partial curve, poor fit]	
O=c1[nH]c(N2CCN(Cc3ccc4c(c3)OCO4)CC2)nc2c1CCC2	inactive	
COc1ccccc1-n1c(-c2cccs2)nc2ccccc2c1=O	inconclusive [activator, single point]	
CCCCn1c(N)c(C(=O)OCCOC)c2nc3ccccc3nc21	inconclusive [activator, single point]	
CCN(c1cccc(C)c1)S(=O)(=O)c1ccc2c(c1)oc(=O)n2C	inconclusive [activator, single point]	
Cc1cccc(NP(=O)(Oc2ccccc2F)Oc2ccccc2F)c1	inconclusive [activator, single point]	
COc1ccccc1-n1c(O)c(C=Nc2c(C)n(C)n(-c3ccccc3)c2=O)c(=O)[nH]c1=O	inconclusive [activator, single point]	

SMILES	Potency	activity, positive = re-replication
COc1cccc(-c2nc3ccc(N4CCN(C)CC4)cc3[nH]2)c1	inconclusive [activator, single point]	
NC(=O)Nc1ccc(C(=O)OCC(=O)Nc2ccc(Cl)cc2C(=O)c2ccccc2)cc1	inconclusive [activator, single point]	
CC(C)N(C(=O)CCl)c1ccccc1	inconclusive [activator, single point]	
CCOC(=O)C(O)(c1ccc(N(C)C(=O)COc2ccccc2)cc1)C(F)(F)F (centres undefined)	inactive	
CSc1ccc(CN2CCN(C(=O)COc3ccc(C)cc3)CC2)cc1	inconclusive [activator, single point]	
COc1ccc(CN(C)S(=O)(=O)c2nnc(NC(=O)c3ccccc3Br)s2)cc1	inconclusive [activator, single point]	
O=c1cc(O)c2ccccc2[nH]1	inconclusive [activator, partial curve, poor fit]	
O=C(N/N=C/c1c(O)n(CCC2=CCCCC2)c(=O)[nH]c1=O)c1ccccc1	inactive	
Cc1c(C(=O)N2CCC3(CC2)OCCO3)oc2ccc(S(=O)(=O)N3CCCCC3)cc12	inconclusive [activator, single point]	
c1ccc(C(OCCN2CCN(c3ncccn3)CC2)c2ccccc2)cc1	inconclusive [activator, single point]	
O=C1NC(=O)C(=Cc2c(Cl)cccc2Cl)C(=O)N1	inconclusive [activator, single point]	
Cc1cc(=O)oc2c(C)c(OCC(=O)N3CCN(Cc4ccccc4)CC3)ccc12	inconclusive [activator, partial curve, poor fit]	
O=C(CN1C(=O)C(=O)N(C2CCCC2)C1=O)Nc1cc(Cl)ccc1[N+](=O)[O-]	inconclusive [activator, single point]	
C/C(=N\Nc1ccccc1)c1c(O)n(Cc2ccccc2)c(=O)[nH]c1=O	inactive	
c1cc2c(cc1N1CCCCC1)C1CC2CCN1 (centres undefined)	inconclusive [activator, partial curve, poor fit]	
C=CCn1c(O)c(C(CC)=NCc2ccc3c(c2)OCO3)c(=O)[nH]c1=O	inconclusive [activator, single point]	
CC(C)=CCc1c(O)cc2c(c1O)C(=O)CC(c1ccc(O)cc1)O2 (centres undefined)	inconclusive [activator, partial curve]	
O=C(CCN1CCN(CCO)CC1)N1c2ccccc2Sc2ccc(C(F)(F)F)cc21	inconclusive [activator, partial curve, poor fit]	
CN(C)C(Cc1ccccc1)C(=O)c1ccc(-c2ccccc2)cc1 (centres undefined)	inconclusive [activator, partial curve, poor fit]	
COc1ccc(CC2C(=O)N(C)C(=O)N(C)C2=O)c(OC)c1	inconclusive [activator, single point]	
CCOC(=O)c1cn2nc(OP(=S)(OCC)OCC)cc2nc1C	inconclusive [activator, single point]	
CCc1ccc(N2C(=O)NC(=O)/C(=C\C=C\c3ccco3)C2=O)cc1	active: 23.1 µM	

SMILES	Potency	activity, positive = re-replication
CC12CCC3c4ccc(OC(=O)N(CCCl)CCCl)cc4CCC3C1CCC2O (centres undefined)	active: 20.6 µM	
N#Cc1ccccc1Cn1cc(C(=O)c2ccccc2F)c2ccccc21	inactive	
CSc1nc(C)c(Br)c(N2CC2)n1	inconclusive [activator, partial curve, poor fit]	
CCCCCCN=C(CC)c1c(O)n(CCCC)c(=O)[nH]c1=O	inconclusive [activator, partial curve, poor fit]	
c1ccc2c(N3CCNCC3)cccc2c1	inconclusive [activator, partial curve, poor fit]	
Clc1cccc(CNCCc2c[nH]c3ccccc23)c1	inconclusive [activator, single point]	
CC1(C)CC(=O)C2=C(C1)NC(=O)C21C(C(=O)OC(C)(C)C)=C(N)Oc2ccc(Br)cc21 (centres undefined)	inconclusive [activator, single point]	
O=C1NC(=O)C(=Cc2cc(Cl)ccc2OCc2ccc(C(=O)O)cc2)C(=O)N1	active: 0.92 µM	
CCOC(=O)C(O)(c1ccc(NC(=S)NC(=O)c2ccc(Cl)cc2Cl)cc1)C(F)(F)F (centres undefined)	inconclusive [activator, single point]	
O=[N+]([O-])c1ccc2nc(N3CCNCC3)ccc2c1	inactive	
Cc1cc(OCC(=O)N2CCN(CC(=O)N3CCOCC3)CC2)c(C(C)C)cc1Cl	inactive	
Cc1cc(NS(=O)(=O)c2ccc(N)cc2)no1	inconclusive [activator, single point]	
CC(C)n1c(O)c(C2c3cc(Cl)ccc3Oc3[nH]c(=O)n(C(C)C)c(=O)c32)c(=O)[nH]c1=O (centres undefined)	active: 2.06 µM	
CCCC12CN3CC(CCC)(CN(C1)C3c1ccccn1)C2=O (centres undefined)	inactive	
CC1CCC(NC(=O)c2cc3c(=O)n(C)c4ccccc4c3n2C)CC1 (centres undefined)	inconclusive [activator, partial curve, poor fit]	
Cn1nc(C(F)(F)F)c(-c2ccccc2)c1N	inconclusive [activator, single point]	
CC(C)C(NC(=O)C(C(C)C)N(C)C)C(=O)N(C)C(C(=O)N1CCCC1C(=O)N1CCCC1C(=O)NCc1ccccc1)C(C)C (centres undefined)		inconclusive: 90% [activator]
Oc1c(Br)cc(-c2ccccc2)cc1Br	inconclusive [activator, single point]	
COC(=O)C1=C(c2cc3ccccc3o2)C[C@@H]2CC[C@H]1N2C(=O)N1CCC(C)CC1	inconclusive [activator, partial curve, poor fit]	
Cn1c(O)c(C=NCCN2CCN(C(=O)Nc3ccccc3)CC2)c(=O)n(C)c1=O	inconclusive [activator, full curve, poor fit]	
